# Source: PubChem BioAssay (Tox21)
# Inconclusive results, whose numbers are uncertain, are shown with a selection of clear calls. A call without a number means that no potency is given here. For part of these data: A potency beside an inconclusive call is a rough fit, not a confirmed value. Active and inactive are the calls of the source. Unless noted, calls follow the shape of the dose curve; as a rule, active = well fitted curve in the direction sought with a large enough effect in the repeat runs; inconclusive = weak or mixed curves; inactive = no such curve, though single readings can be large; an effect the other way counts as inactive or inconclusive.
# Experiments:
# [1] = target: Glucocorticoid receptor (Homo sapiens) (UniProt P04150); assay: qHTS assay to identify small molecule antagonists of the glucocorticoid receptor (GR) signaling pathway (AID 720692; active = well fitted inhibition curve with a large enough effect in the signal ratio in the repeat runs, not every such curve was filed as active; inconclusive = weak or mixed curves, or effect the other way; inactive = no such curve, though single readings can be large or run the other way; the % refers to the signal ratio); conditions: GR-bla HeLa, beta-lactamase FRET ratio, dexamethasone-stimulated, 18 h; activity change, negative = inhibition: at 58.5 µM (top of the series) unless noted
# How it was run: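 GR-bla HeLa cells (beta-lactamase reporter under glucocorticoid response element) were pre-plated 4 h at 37 C, treated with compounds plus 5 nM dexamethasone (final) for 18 h, then read by LiveBLAzer B/G FRET fluorescence after 2 h.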
# [2] = qHTS assay to identify small molecule antagonists of the estrogen receptor alpha (ER-alpha) signaling pathway - cell viability counter screen (AID 743074; calls by dose curve;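 also: HEK293 cells carrying ER-alpha-UAS-bla reporter stimulated with 17beta-estradiol; nearly all actives have a fitted effect of over 45% in size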)
# [3] = qHTS assay to identify aromatase inhibitors - cell viability counter screen (AID 743084); conditions: MCF-7 aro ERE viability, CellTiter-Fluor, 24 h; activity change, negative = cytotoxicity: at 70.3 µM (top of the series) unless noted;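 also: cells stimulated with testosterone during compound exposure; nearly all actives have a fitted effect of over 55% in size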; also: potency is read from the fitted curve at half-maximal effect
# [4] = target: Peroxisome proliferator-activated receptor gamma (Homo sapiens) (UniProt P37231); assay: qHTS assay to identify small molecule agonists of the peroxisome proliferator-activated receptor gamma (PPARg) signaling pathway (AID 743094; active = well fitted activation curve with a large enough effect in the signal ratio in the repeat runs, not every such curve was filed as active; inconclusive = weak or mixed curves, or effect the other way; inactive = no such curve, though single readings can be large or run the other way; the % refers to the signal ratio); conditions: HEK293H PPARg-UAS-bla, beta-lactamase FRET ratio, 17 h; activation: at 57 µM (top of the series) unless noted
# How it was run: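 GeneBLAzer PPARg UAS-bla HEK293H cells carrying a stably integrated beta-lactamase reporter were pre-incubated 5 h at 37C, then exposed to compounds in DMSO for 17 h at 37C; LiveBLAzer B/G FRET substrate was added for 1 h at room temperature and fluorescence read.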
# [5] = target: Peroxisome proliferator-activated receptor gamma (Homo sapiens) (UniProt P37231); assay: qHTS assay to identify small molecule antagonists of the peroxisome proliferator-activated receptor gamma (PPARg) signaling pathway (AID 743191; calls by dose curve; also: nearly all actives have a fitted effect of over 30% in size); conditions: HEK293H PPARg-UAS-bla, beta-lactamase ratio, antagonist, 17 h; ratio activity, negative = inhibition: at 62.6 µM (top of the series) unless noted
# How it was run: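 GeneBLAzer PPARg UAS-bla HEK293H cells carrying a UAS-driven beta-lactamase reporter were plated at 3000 cells/well, preincubated 5 h at 37C, then given compound for 17 h at 37C; LiveBLAzer B/G FRET substrate was read after 1 h at room temperature.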
# [6] = qHTS assay to identify small molecule antagonists of the peroxisome proliferator-activated receptor gamma (PPARg) signaling pathway - cell viability counter screen (AID 743194); conditions: PPARg-bla HEK293H viability, CellTiter-Glo luminescence, 17 h, co-treated with 50 nM rosiglitazone; activity change, negative = cytotoxicity: at 62.6 µM (top of the series) unless noted; also: nearly all actives have a fitted effect of over 55% in size
# How it was run: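 PPARg-UAS-bla HEK293H cells were plated, rested 5 h at 37 C, then treated with compounds plus rosiglitazone (50 nM final) for 17 h at 37 C; viability was then read by CellTiter-Glo luminescence after 30 min at room temperature.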
# [7] = qHTS assay for small molecule activators of the heat shock response signaling pathway (AID 743210; active = well fitted activation curve with a large enough effect in the signal ratio in the repeat runs, with a control signal flat, not every such curve was filed as active; inconclusive = weak or mixed curves; the % refers to the signal ratio;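 also: HeLa cells with beta-lactamase reporter driven by heat shock elements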); conditions: HeLa HSE-bla reporter, beta-lactamase ratio, 5 h; activation: at 62.6 µM (top of the series) unless noted
# How it was run: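 Reporter gene assay: HeLa cells stably bearing an HSE-bla construct, compound treatment 5 h at 37 C, LiveBLAzer substrate 2.5 h at RT, fluorescence intensity.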
# [8] = qHTS assay to identify small molecule antagonists of the vitamin D receptor (VDR) signaling pathway - cell viability counter screen (AID 743225); conditions: VDR-bla HEK293T viability, CellTiter-Glo luminescence, 16 h; viability change, negative = cytotoxic: at 61 µM (top of the series) unless noted; also: nearly all actives have a fitted effect of over 50% in size
# How it was run: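 Cells (VDR-UAS-bla HEK 293T) are plated, rested 4 h at 37C, dosed with compound and 3 nM final 1-alpha,25-dihydroxy vitamin D3, and incubated 16 h. Viability is taken from CellTiter-Glo luminescence in the reporter wells.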
# [9] = qHTS assay for identifying genotoxic compounds that show differential cytotoxicity against isogenic chicken DT40 cell lines with known DNA damage response pathways - Rev3 mutant cell line (AID 743014); conditions: chicken DT40 Rev3-/- viability, CellTiter-Glo, 40 h; activity, negative = cytotoxicity: at 68.4 µM (top of the series) unless noted; also: nearly all actives have a fitted effect of over 55% in size; also: potency is read from the fitted curve at half-maximal effect
# Aromatase (Homo sapiens) = Aromatase (Homo sapiens) (UniProt P11511); assay: qHTS assay to identify aromatase inhibitors (AID 743083); also: nearly all actives have a fitted effect of over 55% in size
# [10] = qHTS assay for identifying genotoxic compounds that show differential cytotoxicity against isogenic chicken DT40 cell lines with known DNA damage response pathways - wild type cell line (AID 743012); conditions: DT40 wild type chicken cells viability, CellTiter-Glo, 40 h; activity change, negative = cytotoxicity: at 68.4 µM (top of the series) unless noted; also: potency is read from the fitted curve at half-maximal effect; nearly all actives have a fitted effect of over 60% in size
# How it was run: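 Parental DNA repair-proficient DT40 cells, 300 per well, were pre-incubated ~0.5 h at 37 C/5% CO2, pin-dosed with compounds in DMSO, then incubated 40 h. Viability was read as CellTiter-Glo luminescence after 30 min at room temperature.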
# [11] = qHTS assay for identifying genotoxic compounds that show differential cytotoxicity against isogenic chicken DT40 cell lines with known DNA damage response pathways - Rad54/Ku70 mutant cell line (AID 743015); conditions: DT40 Rad54/Ku70 mutant viability, CellTiter-Glo, 40 h; activity change, negative = cytotoxicity: at 66.8 µM (top of the series) unless noted; also: nearly all actives have a fitted effect of over 60% in size; also: potency is read from the fitted curve at half-maximal effect
# [12] = qHTS assay to identify small molecule antagonists of the thyroid receptor (TR) signaling pathway - cell viability counter screen (AID 743064); conditions: GH3.TRE-Luc viability, CellTiter-Fluor, 24 h; activity change, negative = cytotoxic: at 70.3 µM (top of the series) unless noted; also: potency is read from the fitted curve at half-maximal effect; nearly all actives have a fitted effect of over 50% in size
# How it was run: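 Plate GH3.TRE-Luc cells; incubate 4 h at 37 °C; add compound, then T3 to 1 nM final; incubate 23.5 h; add CellTiter-Fluor; incubate 30 min at 37 °C, 5% CO2; read fluorescence.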
# [13] = target: Aryl hydrocarbon receptor (Homo sapiens) (UniProt P35869); assay: qHTS assay to identify small molecule that activate the aryl hydrocarbon receptor (AhR) signaling pathway (AID 743085); also: potency is read from the fitted curve at half-maximal effect; nearly all actives have a fitted effect of over 15% in size
# How it was run: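 Steps: seed HepG2-AhR-luc cells; allow 5 h at 37C; pin-transfer test compound or vehicle; incubate 24 h at 37C; add viability dye (30 min, 37C) and read fluorescence; add luciferase substrate (30 min, RT) and read luminescence.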
# [14] = qHTS assay to identify small molecule antagonists of the glucocorticoid receptor (GR) signaling pathway - cell viability counter screen (AID 720693); conditions: GR-bla HeLa viability, CellTiter-Glo luminescence, 18 h, with 5 nM dexamethasone present; viability change, negative = cytotoxic: at 58.5 µM (top of the series); also: nearly all actives have a fitted effect of over 55% in size
# [15] = target: Estrogen receptor (Homo sapiens) (UniProt P03372); assay: qHTS assay to identify small molecule agonists of the estrogen receptor alpha (ER-alpha) signaling pathway using the BG1 cell line (AID 743079); conditions: BG1Luc4E2 cells, ERE-luciferase agonist, 22 h; activation: at 70.3 µM (top of the series) unless noted; also: nearly all actives have a fitted effect of over 20% in size
# [16] = qHTS assay to identify small molecule antagonists of the androgen receptor (AR) signaling pathway using the MDA cell line - cell viability counter screen (AID 743041; also: potency is read from the fitted curve at half-maximal effect; nearly all actives have a fitted effect of over 45% in size); conditions: MDA-kb2 viability, CellTiter-Fluor, 16 h, cells co-treated with R1881 androgen agonist; viability change, negative = cytotoxic: at 70.3 µM (top of the series)
# How it was run: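 Viability counter screen run alongside the AR antagonist reporter: cells seeded 5 h before compound, R1881 added, 16 h incubation at 37C without CO2, fluorescent CellTiter-Fluor signal quantified.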
# [17] = qHTS assay to identify small molecule antagonists of the estrogen receptor alpha (ER-alpha) signaling pathway using the BG1 cell line (AID 743080; calls by dose curve;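 also: BG1 cells stimulated with 17beta-estradiol alongside compound; nearly all actives have a fitted effect of over 25% in size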); conditions: BG1Luc4E2 ERE-luciferase antagonist mode, luminescence; activity change, negative = inhibition: at 70.3 µM (top of the series) unless noted
# How it was run: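 Seeding, 24 h rest, compound transfer from DMSO, 17beta-estradiol addition, 21.5 h incubation, CellTiter-Fluor (30 min, 37 C), then ONE-Glo (30 min, room temperature): this sequence was run on BG1-Luc-4E2 reporter cells.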
# [18] = qHTS assay to identify small molecule that activate the aryl hydrocarbon receptor (AhR) signaling pathway - cell viability counter screen (AID 743086); also: potency is read from the fitted curve at half-maximal effect; nearly all actives have a fitted effect of over 45% in size
# How it was run: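 HepG2-AhR-luc (HG2L7.5c1) cells, 4000/well, were preincubated 5 h at 37C, exposed to compound in qHTS format for 24 hr at 37C, then given CellTiter-Fluor for 30 min; viability was read as fluorescence in the reporter wells.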
# Tags tell the direction and shape of the fitted curve.
# UniProt P37231, sequence (P37231 whole entry, looked up): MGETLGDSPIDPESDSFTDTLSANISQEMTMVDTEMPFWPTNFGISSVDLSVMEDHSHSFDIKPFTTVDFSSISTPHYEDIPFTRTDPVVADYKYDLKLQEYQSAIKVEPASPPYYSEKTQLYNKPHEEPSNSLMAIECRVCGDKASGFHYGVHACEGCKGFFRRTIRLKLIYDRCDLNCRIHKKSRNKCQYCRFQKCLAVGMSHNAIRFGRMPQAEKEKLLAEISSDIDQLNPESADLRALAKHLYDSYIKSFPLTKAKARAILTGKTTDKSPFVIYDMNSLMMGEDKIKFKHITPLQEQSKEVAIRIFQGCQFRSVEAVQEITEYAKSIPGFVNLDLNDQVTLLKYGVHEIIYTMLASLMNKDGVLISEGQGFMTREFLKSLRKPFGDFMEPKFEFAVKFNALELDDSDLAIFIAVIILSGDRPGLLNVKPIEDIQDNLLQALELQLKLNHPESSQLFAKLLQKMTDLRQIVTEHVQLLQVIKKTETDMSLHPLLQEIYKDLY
# UniProt P04150, sequence (P04150 whole entry, looked up): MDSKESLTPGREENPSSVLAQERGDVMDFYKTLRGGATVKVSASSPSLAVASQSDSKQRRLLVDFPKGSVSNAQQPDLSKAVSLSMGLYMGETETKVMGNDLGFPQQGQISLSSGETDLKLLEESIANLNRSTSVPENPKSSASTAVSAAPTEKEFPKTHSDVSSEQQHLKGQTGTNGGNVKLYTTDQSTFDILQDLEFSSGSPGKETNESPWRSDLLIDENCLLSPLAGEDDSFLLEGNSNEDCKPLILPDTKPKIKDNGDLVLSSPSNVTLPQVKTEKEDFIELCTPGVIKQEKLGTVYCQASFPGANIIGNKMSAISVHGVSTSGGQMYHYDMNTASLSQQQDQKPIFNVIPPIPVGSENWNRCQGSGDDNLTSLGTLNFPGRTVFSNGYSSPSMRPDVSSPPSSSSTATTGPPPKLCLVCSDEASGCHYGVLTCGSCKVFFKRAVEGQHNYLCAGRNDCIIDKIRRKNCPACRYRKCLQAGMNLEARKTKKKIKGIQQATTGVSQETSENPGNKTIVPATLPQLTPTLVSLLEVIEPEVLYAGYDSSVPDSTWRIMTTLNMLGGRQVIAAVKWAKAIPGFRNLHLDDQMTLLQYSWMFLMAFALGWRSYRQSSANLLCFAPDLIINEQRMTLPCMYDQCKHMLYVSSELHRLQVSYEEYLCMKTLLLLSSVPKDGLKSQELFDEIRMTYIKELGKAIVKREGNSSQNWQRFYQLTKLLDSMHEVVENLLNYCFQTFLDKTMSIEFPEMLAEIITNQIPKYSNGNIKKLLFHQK
# UniProt P35869, sequence (P35869 whole entry, looked up): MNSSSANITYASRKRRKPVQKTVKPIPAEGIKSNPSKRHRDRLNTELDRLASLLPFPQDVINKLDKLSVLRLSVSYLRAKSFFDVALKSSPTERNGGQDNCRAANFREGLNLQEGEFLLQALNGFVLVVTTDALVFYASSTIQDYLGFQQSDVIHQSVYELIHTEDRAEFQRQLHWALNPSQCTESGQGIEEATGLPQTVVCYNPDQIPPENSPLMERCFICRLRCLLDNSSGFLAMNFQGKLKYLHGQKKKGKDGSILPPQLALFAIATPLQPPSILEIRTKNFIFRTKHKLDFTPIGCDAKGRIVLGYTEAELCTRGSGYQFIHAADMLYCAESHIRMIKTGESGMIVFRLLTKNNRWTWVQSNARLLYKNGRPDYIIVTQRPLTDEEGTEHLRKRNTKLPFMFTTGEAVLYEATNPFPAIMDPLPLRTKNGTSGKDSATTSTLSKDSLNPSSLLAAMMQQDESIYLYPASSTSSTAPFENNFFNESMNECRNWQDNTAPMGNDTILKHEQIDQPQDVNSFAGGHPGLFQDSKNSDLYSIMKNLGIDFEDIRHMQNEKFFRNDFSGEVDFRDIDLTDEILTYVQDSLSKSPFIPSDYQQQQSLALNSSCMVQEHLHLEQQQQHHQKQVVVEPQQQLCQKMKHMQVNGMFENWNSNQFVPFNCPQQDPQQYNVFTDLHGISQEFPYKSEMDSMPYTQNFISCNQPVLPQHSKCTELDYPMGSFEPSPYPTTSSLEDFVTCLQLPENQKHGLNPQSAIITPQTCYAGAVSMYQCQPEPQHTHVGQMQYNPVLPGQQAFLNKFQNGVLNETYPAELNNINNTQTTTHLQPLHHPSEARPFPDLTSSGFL
# UniProt P11511, sequence (P11511 whole entry, looked up): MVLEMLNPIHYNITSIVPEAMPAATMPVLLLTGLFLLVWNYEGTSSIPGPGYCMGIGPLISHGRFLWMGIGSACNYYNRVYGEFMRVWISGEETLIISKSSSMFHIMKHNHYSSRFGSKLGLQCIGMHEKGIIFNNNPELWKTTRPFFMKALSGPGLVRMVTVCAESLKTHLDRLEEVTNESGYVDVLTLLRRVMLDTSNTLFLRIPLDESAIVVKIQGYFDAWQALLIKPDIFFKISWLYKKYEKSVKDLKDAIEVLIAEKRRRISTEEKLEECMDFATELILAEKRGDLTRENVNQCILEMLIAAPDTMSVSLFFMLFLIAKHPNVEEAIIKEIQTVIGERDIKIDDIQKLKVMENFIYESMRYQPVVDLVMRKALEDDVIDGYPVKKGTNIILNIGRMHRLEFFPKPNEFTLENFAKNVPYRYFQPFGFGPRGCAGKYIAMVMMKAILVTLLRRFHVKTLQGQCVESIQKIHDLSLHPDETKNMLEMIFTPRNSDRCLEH
# UniProt P03372, sequence (P03372 whole entry, looked up): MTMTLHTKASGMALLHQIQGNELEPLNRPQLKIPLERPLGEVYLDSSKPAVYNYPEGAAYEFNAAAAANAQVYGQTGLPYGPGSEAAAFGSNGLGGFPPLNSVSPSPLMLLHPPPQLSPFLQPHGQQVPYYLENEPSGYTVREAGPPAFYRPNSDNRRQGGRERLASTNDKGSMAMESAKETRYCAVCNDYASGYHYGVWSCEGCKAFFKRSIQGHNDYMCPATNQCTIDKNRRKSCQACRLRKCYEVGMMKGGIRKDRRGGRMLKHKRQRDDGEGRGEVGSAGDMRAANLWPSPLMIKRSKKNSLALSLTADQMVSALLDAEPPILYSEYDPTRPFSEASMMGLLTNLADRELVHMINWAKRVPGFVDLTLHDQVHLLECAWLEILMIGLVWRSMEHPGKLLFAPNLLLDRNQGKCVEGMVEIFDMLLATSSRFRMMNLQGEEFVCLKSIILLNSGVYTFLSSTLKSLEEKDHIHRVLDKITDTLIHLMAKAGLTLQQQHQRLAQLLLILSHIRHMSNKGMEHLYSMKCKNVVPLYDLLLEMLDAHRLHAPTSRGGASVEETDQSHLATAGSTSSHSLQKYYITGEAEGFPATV
smiles,measurement,setting,value
CC(C)C1CCC(O)CC1 (stereo not given),Potency,[1],inactive
same,Potency,[2],inactive
same,Potency,[3],inactive
same,Potency,[4],inactive
same,Potency,[5],inactive
same,Potency,[6],inactive
same,Potency,[7],inactive
same,Potency,[8],inactive
O=C(O)c1ccc(NC2OC[C@@H](O)[C@H](O)[C@H]2O)cc1 (stereo not given in full),"activity change, negative = inhibition",[1],inconclusive: 6.38%
same,Potency,[9],"inconclusive: 29.8 µM [rising, partial curve, poor fit]"
same,Potency,Aromatase (Homo sapiens),inactive
N=C(N)c1ccc(/C=C/c2ccc(C(=N)N)cc2O)cc1,Potency,[10],inconclusive: 33.5 µM [cytotoxic]
same,Potency,[9],"inconclusive: 33.5 µM [cytotoxic, single point]"
same,Potency,[11],"inconclusive: 33.5 µM [cytotoxic, single point]"
same,Potency,[12],"inconclusive: 8.41 µM [rising, partial curve, poor fit]"
same,Potency,[13],"inconclusive: 33.5 µM [activator, partial curve, poor fit]"
same,Potency,[4],inactive
CC(=O)Nc1c(I)c(C(=O)N[C@H]2C(O)O[C@H](CO)[C@@H](O)[C@@H]2O)c(I)c(N(C)C(C)=O)c1I (stereo not given in full),"activity change, negative = inhibition",[1],inconclusive: 18.2% [at 27 µM]
same,Potency,[14],inactive
same,Potency,[9],inactive
same,Potency,[15],inactive
CN1CC(O)c2cc(N=NC(N)=O)c(O)cc21 (stereo not given),Potency,[1],inactive
same,Potency,[11],inactive
same,Potency,[16],"inconclusive: 26.6 µM [cytotoxic, single point]"
same,Potency,[12],"inconclusive: 18.8 µM [cytotoxic, partial curve, poor fit]"
same,Potency,[17],inactive
same,Potency,[3],inconclusive: 26.6 µM [cytotoxic]
same,Potency,[18],"inconclusive: 11.9 µM [falling, partial curve, poor fit]"
O=C(NCCNCC(O)COc1ccc(O)cc1)N1CCOCC1 (stereo not given),Potency,[1],inactive
same,Potency,[9],"inconclusive: 33.5 µM [rising, partial curve, poor fit]"
